Reference: PubChem BioAssay AID686971 (National Center for Advancing Translational Sciences (NCATS), 2013)
In all, about 360,000 compounds went through this assay and about 7,500 (2.1%) were called active. The inconclusive results got no clear call from the source; some entries with a clear call stand among them for comparison. The call rests on the fitted dose curve; in most records, active means well fitted cell-killing curve with a large enough effect; inconclusive means small, poorly fitted or top-dose-only effect, or effect the other way, or another doubt; inactive means no such curve, though single readings can be large or run the other way. No potency is given beside an inconclusive call; the fits are too rough.
Potency means the concentration at half of the fitted maximal effect; tags describe the fitted curve by direction and shape.

Experiment: qHTS for induction of synthetic lethality in tumor cells producing 2HG: qHTS for the HT-1080-IDH1KD cell line;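 on activity, negative = toxicity: 0% = DMSO wells and -100% = cell-free medium wells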
Settings: HT-1080 IDH1 knockdown viability, ATP luminescence, 48 h; activity, negative = toxicity: at 46.1 µM (top of the series) unless noted
Summary of the method: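 Knockdown cells (IDH1KD HT-1080) received compounds 2 h after plating at 750 cells/well and were kept 48 h at 37 °C in 5% FBS RPMI. A CellTiter-Glo luminescence read gave % activity for curve fitting.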
In the case of `CCCCC[C@H](C)N1C[C@H](COCc2ccccc2)Oc2cc(N3CC[C@H](N(C)C)C3)ccc2S1(=O)=O`, the Potency is reported as active: 20.6 µM.
For `CCOc1ccc(C(=O)C(CN2CCOCC2)c2ccccc2)cc1` (centres undefined), the Potency was active: 9.2 µM.
In the case of `C=C(C)COc1ccc(-c2nc(N)ncc2-c2ccccc2OC)c(O)c1`, the Potency is reported as inconclusive [cytotoxic, single point].
In the case of `C=CCNC(=O)Cc1c(OC)ccc2cc(Br)ccc12`, the Potency is reported as “inactive”.
With `Oc1ccc(C[C@H]2CNCCN2CCCCC2CCCCC2)cc1` the Potency was active: 23.1 µM.
In the case of `O=C(CSc1nnc(COc2cccc3cccnc23)o1)c1ccc(F)cc1`, the Potency is reported as active: 5.01 µM.
In the case of `C=CCn1c(=S)[nH]c2nc3c(cc2c1=O)CCCC3`, the Potency is reported as active: 8.91 µM.
In the case of `Cc1cc(Br)cc(/C=N/NC(=O)c2ccc3c(c2)OCO3)c1O`, the Potency is reported as active: 16.4 µM.
With `O=[N+]([O-])c1cc([N+](=O)[O-])c(Oc2ccc(Cl)c3cccnc23)cc1NN1CCCCC1` the Potency was “inactive”.
For `CCOC(=O)c1cc2nc(Nc3ccc(OC)cc3)sc2s1`, the Potency was inconclusive [cytotoxic, single point].
In the case of `Cc1ccc(NC(=S)Nc2ncccc2C)c(C)c1`, the Potency is reported as inconclusive [cytotoxic, single point].
For `O=C(Nc1ccc(Cl)cc1)N1CCC(c2nc(-c3ccccc3Cl)no2)CC1`, the Potency was inconclusive [cytotoxic, single point].
In the case of `COc1ccc(-c2cc(C(=O)NCC3CCCO3)c3cc(C)ccc3n2)cc1` (centres undefined), the Potency is reported as “inactive”.
With `Cc1ccc2oc(=O)c3cnn(CC(=O)NCCCOC(C)C)c3c2c1` the Potency was “inactive”.
With `N#CCCn1c2ccccc2c2nc3ccccc3nc21` the Potency was “inactive”.
For `O=C(c1cccc(COc2cccc3ccccc23)c1)N1CCCC1`, the Potency was inconclusive [cytotoxic, partial curve].
For `CC1(C)CN=c2s/c(=C\c3ccc(Cl)cc3)c(=O)n2C1`, the Potency was inconclusive [cytotoxic, single point].
In the case of `O=C(Cn1c2ccccc2c2nc3n(c(=O)c21)CCCS3)Nc1ccccc1`, the Potency is reported as inconclusive [cytotoxic, single point].
For `CCCOc1ncnc2c1[nH]c1ccc(C)cc12`, the Potency was inconclusive [cytotoxic, single point].
For `CC(O)(c1ccccc1)c1nc(-c2ccccc2)cs1` (centres undefined), the Potency was inconclusive [cytotoxic, single point].
In the case of `Cc1cccc(NC(=O)c2nc(S(=O)(=O)Cc3ccccc3)ncc2Cl)c1`, the Potency is reported as active: 6.51 µM.
For `COc1ccccc1CN1CCNC(=O)C1CC(=O)NCc1cn(C)nc1C` (centres undefined), the Potency was “inactive”.
For `O=C(/C=C/c1ccc2c(c1)OCO2)Nc1nc2ccc(F)cc2s1`, the Potency was inconclusive [cytotoxic, full curve].
With `COc1ccc(C(=O)Nc2ccccc2C(=O)N/N=C/c2ccc(O)c(OC)c2)cc1` the Potency was active: 6.51 µM.
For `CC[N+]1(C)CCC(O)(c2ccc(OC)cc2)C(C(=O)c2ccc(OC)cc2)C1` (centres undefined), the Potency was active: 4.61 µM.
For `CCc1nc2c(OCc3cc(Cl)cc(Cl)c3)cccn2c1N(C=O)Cc1ccccc1`, the Potency was inconclusive [cytotoxic, single point].
For `CCOC(=O)N1CCC(n2c(SCC(=O)NCCC3=CCCCC3)nc3ccccc3c2=O)CC1`, the Potency was inconclusive [cytotoxic, single point].
For `c1ccc(-c2nnc3sc(-c4cc5ccccc5o4)nn23)cc1`, the Potency was inconclusive [rising, partial curve].
In the case of `CCc1ccc(C(C#N)=CC=Cc2ccccc2)cc1`, the Potency is reported as inconclusive [cytotoxic, single point].
In the case of `COCCCN1C(=O)C(CC(=O)NCc2ccco2)CC(C(=O)N(C(C)C)C(C)C)=C1C` (centres undefined), the Potency is reported as “inactive”.
In the case of `COc1ccc(C(=O)N/N=C/c2cc(Br)ccc2O)cc1OC`, the Potency is reported as inconclusive [cytotoxic, full curve].
In the case of `CC(=O)Nc1ccc(C(=O)OCC(=O)c2ccc(S(=O)(=O)N3CCCCC3)cc2)cc1`, the activity, negative = toxicity is reported as inconclusive: -38.4% [cytotoxic].
For `COc1ccccc1-c1cccc(-c2nc(C(=O)Nc3nccs3)cc3c2[C@@H](CCO)N(C(C)=O)C3)c1`, the Potency was inconclusive [cytotoxic, single point].
For `Cc1nn(Cc2ccccc2)c(C)c1C(=O)OCC(=O)c1cc(C)n(CC(F)(F)F)c1C`, the activity, negative = toxicity was inconclusive: -30.5% [cytotoxic].
In the case of `C/C(CC(=O)NCc1ccc(Cl)cc1)=N\NC(=O)COc1ccc(C)cc1Br`, the Potency is reported as inconclusive [cytotoxic, partial curve].
In the case of `Cc1cccc(N2CCN(C(C(=O)NCc3ccccc3)c3ccc(F)cc3)CC2)c1C` (centres undefined), the Potency is reported as inconclusive [cytotoxic, single point].
For `CC(=O)Nc1cc(-c2ccc(N)nc2)cn2c(-c3cccc(C(F)(F)F)c3)cnc12`, the Potency was inconclusive [cytotoxic, partial curve].
In the case of `CC(C)N(C(=O)[C@H]1C[C@H](CC(=O)NCc2ccco2)C(=O)N2CCc3c([nH]c4ccc(Cl)cc34)[C@]12C)C(C)C`, the Potency is reported as inconclusive [cytotoxic, single point].
In the case of `CCNC(=S)N(CCc1ccc(S(N)(=O)=O)cc1)C1CC(=O)N(c2ccccc2)C1=O` (centres undefined), the Potency is reported as inconclusive [cytotoxic, single point].
In the case of `C(=C\c1ccccc1)/CN1CCN(c2ncnc3c2oc2ccccc23)CC1`, the Potency is reported as inconclusive [cytotoxic, single point].
For `Cc1ccc(Cn2c(=N)n(CC(=O)c3ccccc3)c3ccccc32)cc1`, the Potency was inconclusive [cytotoxic, single point].
With `CCc1ccc([C@@H]2CC=C(C(=O)O)[C@H](c3ccc(C(C)(C)C)cc3)N2S(=O)(=O)c2ccc(C)cc2)cc1` the Potency was inconclusive [cytotoxic, single point].
In the case of `O=C(Cc1ccc(-n2c(=O)c3sccc3n(Cc3ccc(F)cc3)c2=O)cc1)NCc1ccco1`, the Potency is reported as inconclusive [cytotoxic, single point].
With `CC(C)NC(=O)N1c2ccccc2Sc2ccccc21` the Potency was inconclusive [cytotoxic, single point].
For `Nc1ccccc1SCC(=O)Nc1ccc2c(c1)OCO2`, the Potency was inconclusive [cytotoxic, partial curve].
In the case of `COc1ccccc1N1CCN(C(=O)c2cc(=O)c3cc(C)cc(C)c3o2)CC1`, the Potency is reported as active: 0.0103 µM.
In the case of `COc1ccc(-c2nnn(CC(=O)N(Cc3cccs3)C(C)C(=O)NC3CCCC3)n2)cc1OC` (centres undefined), the Potency is reported as inconclusive [cytotoxic, single point].
In the case of `O=C(CCN1CCc2ccccc2C(O)(c2ccccc2)C1)c1ccc2c(c1)OCCO2` (centres undefined), the Potency is reported as inconclusive [cytotoxic, single point].
For `CC1(C)Cc2c(C#N)c(SCc3ccccc3)nc(N3CCOCC3)c2CO1`, the Potency was inconclusive [cytotoxic, single point].
With `Cc1cccn2c(=O)c3cc(C(=O)NC4CCCC4)c(=N)n(CCCN4CCOCC4)c3nc12` the Potency was inconclusive [cytotoxic, partial curve].
For `Cc1ccc(C(C)C)c(OCC(=O)Nc2ccccc2N2CCN(C)CC2)c1`, the Potency was inconclusive [cytotoxic, single point].
In the case of `COc1cccc(C2c3[nH]c4ccccc4c3C[C@H]3C(=O)N(c4ccccc4C(=O)NCCCN4CCOCC4)C(=O)N23)c1` (some centres undefined), the Potency is reported as “inactive”.
With `O=C(c1ccc(S(=O)(=O)c2cccc(Cl)c2)c([N+](=O)[O-])c1)N1CCN(Cc2ccccc2)CC1` the Potency was inconclusive [cytotoxic, single point].
In the case of `Cn1c(=O)n(C)c2cc(NC(=O)CCl)ccc21`, the Potency is reported as inconclusive [cytotoxic, single point].
In the case of `CCN(C(=O)CN1C(=O)COc2ccc(S(=O)(=O)N3CCCCCC3)cc21)c1cccc(C)c1`, the Potency is reported as “inactive”.
With `Cc1ncsc1CCC(=O)N1CCCC(Nc2ccc(F)c(F)c2)C1` (centres undefined) the Potency was “inactive”.
With `COc1ccc(O)cc1` the Potency was inconclusive [cytotoxic, single point].
In the case of `NC(=O)N/N=C(/CCCCCC/C(=N\NC(N)=O)c1ccccc1)c1ccccc1`, the Potency is reported as inconclusive [cytotoxic, partial curve].
With `CC(=O)NC12CC3CC(C1)CC(C(=O)N1CCN(S(=O)(=O)c4ccccc4C#N)CC1)(C3)C2` the Potency was “inactive”.
In the case of `CCOc1ccc2c(c1)C(c1cccs1)=NNC(c1cccnc1)=N2`, the Potency is reported as “inactive”.
With `Cc1occc1-c1nnc(SCc2nnc(-c3ccc(Cl)cc3)o2)n1C` the activity, negative = toxicity was inconclusive: 32%.
With `CCCc1[nH][nH]c(=O)c1C(c1cccc(Cl)c1)C(C#N)C#N` (centres undefined) the Potency was inconclusive [cytotoxic, single point].
With `COc1cc(-c2cc(C(=O)Nc3ccc(O)cc3)c3ccccc3n2)cc(OC)c1OC` the Potency was inconclusive [cytotoxic, single point].
With `CCCCNc1c(-c2cccc(Sc3ccc(OC)cc3)c2)nc2ccccn12` the Potency was inconclusive [cytotoxic, single point].
In the case of `CC(C)NC(=O)c1cccc2c(-c3ccc(F)c(F)c3)coc12`, the Potency is reported as “inactive”.
In the case of `CCCC(c1nnnn1Cc1cccs1)N1CCN(C)CC1` (centres undefined), the Potency is reported as “inactive”.
With `O=C(N/N=C/c1ccc([N+](=O)[O-])o1)c1ccccc1NS(=O)(=O)c1cccs1` the Potency was inconclusive [cytotoxic, single point].
In the case of `O=c1cc(-c2ccccc2)[nH]c2ccc(F)cc12`, the Potency is reported as active: 2.31 µM.
In the case of `NC(=S)Nc1nc2ccccc2s1`, the Potency is reported as active: 14.6 µM.
